Measured values as given in a collection of fitness landscapes (doi:10.1016/j.celrep.2020.107928).
The full ranking holds about 81,000 sequences; the median of “one-hybrid fitness for binding parS DNA” is about -0.17, and the highest 2% start at about 0.51. This is one part of the list.

B1: Caulobacter ParB omega fusion; a variant is named by its letters at X, in order, B8GW30 (parent)
chain: MESVVVGEPGMSEGRRGLGRGLSALLGEVDAAPAQAPGEQLGGSREAPIEILQRNPDQPRRTFREEDLEDLSNSIREKGVLQPILVRPSPDTAGEYQIVAGERAWRAAQRAGLKTVPIMVRELDDLAVLEIGIIENVQRADLNVLEEALSYKVLMEKFERTQENIAQTIGKSXSHVANXMRLLXLPDEVQSYLVSGELTAXHARAIAAAADPVALAKQIIEGGLSVRETEALARKAPNLSAGKSKGGRPPRVKDTDTQALESDLSSVLGLDVSIDHRGSTGTLTITYATLEQLDDLCNRLTRGI

Variants of: B1
Test: one-hybrid fitness for binding parS DNA (scaled: cognate 1, non-cognate 0); higher = stronger binding
Conditions: with parS DNA site
Method in brief: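 Fitness here means the log change in variant-to-wild-type read ratio between plasmids sequenced before and after selection. That scale was set so cognate equals 1 and non-cognate equals 0. The selection was a bacterial one-hybrid screen of Caulobacter ParB libraries, four specificity codons randomised, in E. coli USO carrying a HIS3 reporter with the site 19 bp from the promoter, grown 48 hours at 37°C on M9-minus-histidine with 0.1 mM IPTG and 5 mM 3-AT.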

Variant	one-hybrid fitness for binding parS DNA
NMNC	≤ 0.2
TKTG	≤ 0.2
CSDI	≤ 0.2
HTHV	≤ 0.2
ETNT	≤ 0.2
THVE	≤ 0.2
QTYT	≤ 0.2
QLTF	≤ 0.2
PVLW	≤ 0.2
TNRS	≤ 0.2
ESSS	≤ 0.2
KATK	≤ 0.2
HLKV	≤ 0.2
TSMI	≤ 0.2
QYWE	≤ 0.2
RPWY	≤ 0.2
VPPA	≤ 0.2
APQL	≤ 0.2
WFSD	≤ 0.2
RYPD	≤ 0.2
TTLM	≤ 0.2
IQTP	≤ 0.2
RKFC	0.878
YLQR	≤ 0.2

Variant	one-hybrid fitness for binding parS DNA
QFQV	≤ 0.2
GRAG	≤ 0.2
QNNQ	≤ 0.2
TPHR	≤ 0.2
PPIY	≤ 0.2
VLMC	≤ 0.2
YGVS	≤ 0.2
KMNG	≤ 0.2
LNCF	≤ 0.2
NQHR	≤ 0.2
WCVW	≤ 0.2
PQFS	≤ 0.2
MMMT	≤ 0.2
KPHS	≤ 0.2
NTCC	≤ 0.2
YNYR	≤ 0.2
SHGH	≤ 0.2
YHMS	≤ 0.2
ADYI	≤ 0.2
LPNI	≤ 0.2
HLCC	≤ 0.2
SHWL	≤ 0.2
MEYS	≤ 0.2
DYCT	≤ 0.2

Variant	one-hybrid fitness for binding parS DNA
QIYG	≤ 0.2
HNPV	≤ 0.2
KRVL	≤ 0.2
DVNY	0.281
VYTV	≤ 0.2
TNTK	≤ 0.2
AWCG	≤ 0.2
AEHG	≤ 0.2
SRRP	≤ 0.2
RMHD	≤ 0.2
RHEE	≤ 0.2
ADCW	0.268
PIKL	≤ 0.2
FAPD	≤ 0.2
SGQT	≤ 0.2
QGYC	≤ 0.2
HLDT	≤ 0.2
SQST	≤ 0.2
RKFL	≤ 0.2
DCMS	≤ 0.2
DGWN	≤ 0.2
VGSN	≤ 0.2
QAGI	≤ 0.2
RMGF	0.269

Variant	one-hybrid fitness for binding parS DNA
APGR	≤ 0.2
RYCM	0.254
KRCH	≤ 0.2
ILAS	≤ 0.2
NCTN	≤ 0.2
ALLT	≤ 0.2
VRAA	≤ 0.2
EWGS	≤ 0.2
GACG	≤ 0.2
NGQG	≤ 0.2
TLYY	≤ 0.2
APYP	≤ 0.2
QPMD	≤ 0.2
RYTA	0.582
RTIT	0.813
ITLL	≤ 0.2
IPGT	≤ 0.2
NSES	≤ 0.2
WNPT	≤ 0.2
NCII	≤ 0.2
QGVG	≤ 0.2
VRCS	≤ 0.2
SHPP	≤ 0.2
RYND	0.213

Variant	one-hybrid fitness for binding parS DNA
WYQL	≤ 0.2
CMSG	≤ 0.2
ALMK	≤ 0.2
RQCV	≤ 0.2
ITHT	≤ 0.2
YQGS	≤ 0.2
AYTV	≤ 0.2
SEFT	≤ 0.2
HFLP	≤ 0.2
VSES	≤ 0.2
GVLC	≤ 0.2
RRAI	≤ 0.2
PTLD	≤ 0.2
RKNM	0.234
FPPG	≤ 0.2
HDMR	≤ 0.2
QRFL	≤ 0.2
AQAY	≤ 0.2
MKKT	≤ 0.2
PKAV	≤ 0.2
SLDA	≤ 0.2
NCPS	≤ 0.2
ASQN	≤ 0.2
PPAH	≤ 0.2

Variant	one-hybrid fitness for binding parS DNA
SYGV	≤ 0.2
HQTT	≤ 0.2
VCQP	≤ 0.2
PTIE	≤ 0.2
RIAR	≤ 0.2
LYLM	≤ 0.2
DPAA	≤ 0.2
GTTA	≤ 0.2
AYPA	≤ 0.2
AEPL	≤ 0.2
SLEI	≤ 0.2
KNDT	≤ 0.2
KKCC	≤ 0.2
SLAF	≤ 0.2
RKCD	≤ 0.2
NIPP	≤ 0.2
PRLS	≤ 0.2
DYFD	≤ 0.2
WNCG	≤ 0.2
FLDN	≤ 0.2
FSNG	≤ 0.2
NYVC	≤ 0.2
TGRI	≤ 0.2
LVSV	≤ 0.2

Variant	one-hybrid fitness for binding parS DNA
RSFW	≤ 0.2
PDCT	≤ 0.2
LYWF	≤ 0.2
SFVG	≤ 0.2
HIAR	≤ 0.2
PEFN	≤ 0.2
DVHM	≤ 0.2
TISQ	≤ 0.2
PEHI	≤ 0.2
WRAH	≤ 0.2
ETPG	≤ 0.2
ASFN	≤ 0.2
HASN	≤ 0.2
PYKS	≤ 0.2
PIPF	≤ 0.2
DPTF	≤ 0.2
AQDE	≤ 0.2
RAPL	≤ 0.2
LPSK	≤ 0.2
MTDY	≤ 0.2
SCIC	≤ 0.2
HNGS	≤ 0.2
DPHR	≤ 0.2
CPAC	≤ 0.2

Variant	one-hybrid fitness for binding parS DNA
EKGY	≤ 0.2
QCAY	≤ 0.2
PPKW	≤ 0.2
WICV	≤ 0.2
QTIN	≤ 0.2
HTYC	≤ 0.2
TPPI	≤ 0.2
SLKT	≤ 0.2
LQNN	≤ 0.2
LAHV	≤ 0.2
PCLV	≤ 0.2
HLTV	≤ 0.2
LQPF	≤ 0.2
GREC	≤ 0.2
MTYS	≤ 0.2
EMVW	≤ 0.2
CTML	≤ 0.2
ARRS	≤ 0.2
INGE	≤ 0.2
NIPR	≤ 0.2
LLTQ	≤ 0.2
WISH	≤ 0.2
YNEP	≤ 0.2
HATR	≤ 0.2

Variant	one-hybrid fitness for binding parS DNA
RKIV	≤ 0.2
WVST	≤ 0.2
SACQ	≤ 0.2
VSHQ	≤ 0.2
GAID	≤ 0.2
KHHR	≤ 0.2
CAQR	≤ 0.2
SPML	≤ 0.2
YIKE	≤ 0.2
PMNN	≤ 0.2
RWRH	0.223
YPVD	≤ 0.2
QNVI	≤ 0.2
AGNM	≤ 0.2
WWTF	≤ 0.2
WYYF	≤ 0.2
QTMY	≤ 0.2
WGRG	≤ 0.2
LAPC	≤ 0.2
RIFM	0.336
RYYG	0.997
MYAG	≤ 0.2
RVPM	≤ 0.2
QHTP	≤ 0.2

Variant	one-hybrid fitness for binding parS DNA
LLIS	≤ 0.2
LCLC	≤ 0.2
HVLE	≤ 0.2
PSIT	≤ 0.2
TDSM	≤ 0.2
MIKC	≤ 0.2
TFQN	≤ 0.2
AVGS	≤ 0.2
RQFT	0.759
GMYG	≤ 0.2
PKTN	≤ 0.2
VEAN	≤ 0.2
RTEW	≤ 0.2
GNTS	≤ 0.2
RGGH	≤ 0.2
DDLC	≤ 0.2
HPGN	≤ 0.2
GCAM	≤ 0.2
VSRR	≤ 0.2
RDHD	≤ 0.2
QDII	≤ 0.2
RCQF	≤ 0.2
TRFS	≤ 0.2
WINA	≤ 0.2

Variant	one-hybrid fitness for binding parS DNA
LPEK	≤ 0.2
ALLD	≤ 0.2
PAVE	≤ 0.2
DPLV	≤ 0.2
QRFS	≤ 0.2
CERT	≤ 0.2
LYRF	≤ 0.2
RRRS	0.67
PNKE	≤ 0.2
SQAR	≤ 0.2
WRWI	≤ 0.2
HYTH	≤ 0.2
KVPK	≤ 0.2
PRGY	≤ 0.2
SCPW	≤ 0.2
RWKC	0.896
QQES	≤ 0.2
TYRG	≤ 0.2
FKGG	≤ 0.2
NFSV	≤ 0.2
RWGF	≤ 0.2
IFNM	≤ 0.2
SCSV	≤ 0.2
RTER	≤ 0.2

Variant	one-hybrid fitness for binding parS DNA
ARKA	≤ 0.2
PPQR	≤ 0.2
GMLC	≤ 0.2
AAIH	≤ 0.2
PLFI	≤ 0.2
ALSS	≤ 0.2
THAP	≤ 0.2
YNPM	≤ 0.2
HPYE	≤ 0.2
LLIC	≤ 0.2
YVSL	≤ 0.2
AHNI	≤ 0.2
QSRS	≤ 0.2
SGHY	≤ 0.2
THAG	≤ 0.2
WCNF	≤ 0.2
LDCA	≤ 0.2
HCST	≤ 0.2
SGEM	≤ 0.2
CCMC	≤ 0.2
VMKT	≤ 0.2
SLQW	≤ 0.2
AHGG	≤ 0.2
NANG	≤ 0.2

Variant	one-hybrid fitness for binding parS DNA
YESW	≤ 0.2
PGAI	≤ 0.2
QHPS	≤ 0.2
RDRN	≤ 0.2
IYNR	≤ 0.2
VPMN	≤ 0.2
SARL	≤ 0.2
NMHG	≤ 0.2
HRYM	≤ 0.2
KDTY	≤ 0.2
WQAG	≤ 0.2
RCKP	≤ 0.2
MLTM	≤ 0.2
TPGS	≤ 0.2
YLFC	≤ 0.2
QGPE	≤ 0.2
MNAG	≤ 0.2
MDDG	≤ 0.2
